The other results are listed elsewhere or left out. These are enrichments in a pooled selection; single values are uncertain. Scores sum up all selected molecules that hold the word; the word was not tested alone.

The record followed here is the supplement of paper PMC6531468.

Common to all, as to test: 6-mer SELEX enrichment z-score vs GST control; IMP3 is the RNA-binding protein IGF2BP3; higher = more enriched by binding
One assay deals with IMP3 KH1-4. The settings on record: construct: KH1-4 (164-579); SELEX round: R4. How it is done:
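SELEX-seq with GST-tagged IMP3 KH1-4 (Pro164-Lys579) and an N40 RNA pool, round 4. 6-mer z-score of sequence-tag enrichment normalised to the corresponding GST SELEX round; RNA k-mers written as DNA (T for U).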

Another assay concerns IMP3 RRM1-2. The settings on record: construct: RRM1-2 (1-163); SELEX round: R2. How it is done: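 SELEX-seq with GST-tagged IMP3 RRM1-2 (Met1-Asn163) and an N40 RNA pool, round 2. 6-mer enrichment z-score normalised to GST SELEX. RNA written as DNA (T = U).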
A further assay addresses IMP3 full-length (UniProt O00425). The settings on record: construct: FL IMP3 (1-579); SELEX round: R4. How it is done:
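SELEX-seq with GST-tagged full-length IMP3 and an N40 RNA pool, round 4. Each 6-mer is scored as an enrichment z-score of sequence tags containing it, normalised to the matching GST SELEX round. RNA written as DNA (T = U).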

A further assay has as its system IMP3 KH1-2. The settings on record: construct: KH1-2 (164-376); SELEX round: R4. How it is done:
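SELEX-seq with GST-tagged IMP3 KH1-2 (Pro164-Phe376) and an N40 RNA pool, round 4 (stringent 300/600 mM KCl washes). 6-mer z-score of sequence-tag enrichment normalised to the corresponding GST SELEX round; RNA k-mers written as DNA (T for U).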

The test system of a further assay is IMP3 KH3-4. The settings on record: construct: KH3-4 (377-579); SELEX round: R4. How it is done:
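SELEX-seq with GST-tagged IMP3 KH3-4 (Pro377-Lys579) and an N40 RNA pool, round 4. 6-mer z-score of sequence-tag enrichment normalised to the corresponding GST SELEX round; RNA k-mers written as DNA (T for U).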

Chain of IMP3 RRM1-2 (chain, as listed by the source): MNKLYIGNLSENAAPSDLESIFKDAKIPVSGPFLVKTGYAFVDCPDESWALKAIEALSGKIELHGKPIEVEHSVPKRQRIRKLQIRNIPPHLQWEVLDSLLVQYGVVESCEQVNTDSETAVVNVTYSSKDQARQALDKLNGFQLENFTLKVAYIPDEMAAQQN
Chain of UniProt O00425 (O00425 whole entry): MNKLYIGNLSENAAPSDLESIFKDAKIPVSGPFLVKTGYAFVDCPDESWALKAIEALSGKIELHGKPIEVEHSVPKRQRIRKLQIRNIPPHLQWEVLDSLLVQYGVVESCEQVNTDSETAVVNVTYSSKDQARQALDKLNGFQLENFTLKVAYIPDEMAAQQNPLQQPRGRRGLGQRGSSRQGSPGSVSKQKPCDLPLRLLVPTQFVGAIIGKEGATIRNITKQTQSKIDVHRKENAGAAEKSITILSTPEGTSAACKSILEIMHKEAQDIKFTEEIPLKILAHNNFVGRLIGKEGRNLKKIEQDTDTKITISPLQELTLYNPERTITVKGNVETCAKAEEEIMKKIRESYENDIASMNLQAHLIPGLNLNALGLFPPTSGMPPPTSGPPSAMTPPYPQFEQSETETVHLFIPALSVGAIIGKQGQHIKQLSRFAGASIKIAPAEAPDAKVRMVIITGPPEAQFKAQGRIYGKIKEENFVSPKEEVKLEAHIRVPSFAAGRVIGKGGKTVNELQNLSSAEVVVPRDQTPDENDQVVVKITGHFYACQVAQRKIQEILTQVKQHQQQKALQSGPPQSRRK
Chain of IMP3 KH1-2 (chain, as listed by the source): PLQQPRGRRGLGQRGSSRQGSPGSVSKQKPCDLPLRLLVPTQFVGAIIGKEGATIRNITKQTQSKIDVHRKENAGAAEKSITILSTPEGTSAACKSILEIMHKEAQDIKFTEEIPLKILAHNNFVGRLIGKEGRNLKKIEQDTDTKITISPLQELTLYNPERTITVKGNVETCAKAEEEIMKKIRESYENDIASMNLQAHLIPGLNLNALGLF
Chain of IMP3 KH1-4 (chain, as listed by the source): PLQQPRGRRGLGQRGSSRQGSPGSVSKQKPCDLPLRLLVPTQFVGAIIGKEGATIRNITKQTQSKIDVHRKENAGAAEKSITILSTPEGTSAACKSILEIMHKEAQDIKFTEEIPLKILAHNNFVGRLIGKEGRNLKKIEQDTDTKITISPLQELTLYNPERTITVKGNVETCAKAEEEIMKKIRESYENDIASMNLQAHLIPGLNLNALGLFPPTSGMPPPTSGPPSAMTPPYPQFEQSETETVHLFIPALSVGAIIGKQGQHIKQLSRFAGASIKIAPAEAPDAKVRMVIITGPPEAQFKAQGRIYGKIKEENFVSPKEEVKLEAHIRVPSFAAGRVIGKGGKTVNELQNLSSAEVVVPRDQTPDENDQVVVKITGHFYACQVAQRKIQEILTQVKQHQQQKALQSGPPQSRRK
Chain of IMP3 KH3-4 (chain, as listed by the source): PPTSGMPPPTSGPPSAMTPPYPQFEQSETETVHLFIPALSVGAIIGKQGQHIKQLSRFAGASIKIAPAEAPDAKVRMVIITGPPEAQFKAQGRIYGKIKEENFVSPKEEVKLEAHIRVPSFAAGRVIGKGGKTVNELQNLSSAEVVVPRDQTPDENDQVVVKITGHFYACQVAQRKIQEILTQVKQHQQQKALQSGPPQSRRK

For the sequence CGTACA, the “6-mer SELEX enrichment z-score” value in the assay with IMP3 KH1-4 is -0.65; with IMP3 RRM1-2 it was -0.127; in the assay with IMP3 full-length it was 0.314; in the assay on IMP3 KH1-2, -0.568; with IMP3 KH3-4 it was -0.803.
The matching figures for ACCGAT: -0.679, -1.07, -0.875, -0.442 and -0.786.
For GATGCC, in that order: -1.09, -0.705, -0.975, -0.956 and -1.12.
For CCTCAA, in that order: -1.1, -0.073, -0.709, -0.868 and -1.3.
As to TAGGGC, the “6-mer SELEX enrichment z-score” value in the assay on IMP3 KH1-4 was -0.197; in the assay on IMP3 RRM1-2, 0.395; in the assay with IMP3 full-length, 0.228; in the assay on IMP3 KH1-2 it was -0.04; with IMP3 KH3-4, 0.173.
Turning to GTCAGT, the “6-mer SELEX enrichment z-score” value in the assay with IMP3 KH1-4 stood at 0.189; with IMP3 RRM1-2, 0.344; with IMP3 full-length, 0.456; in the assay with IMP3 KH1-2, 0.131; in the assay with IMP3 KH3-4, 0.167.
In the case of ACACTC, the “6-mer SELEX enrichment z-score” value in the assay on IMP3 KH1-4 was -0.182; in the assay with IMP3 RRM1-2 it was 1.38; with IMP3 full-length it was 0.239; in the assay with IMP3 KH1-2, 0.022; with IMP3 KH3-4 it was -0.769.
The matching figures for ACGGCG: 0.003, 0.127, 1.13, -0.165 and 0.134.
On to CACTCC, for which the “6-mer SELEX enrichment z-score” value was 0.045 in the assay on IMP3 KH1-4; 0.416 with IMP3 RRM1-2; -0.114 with IMP3 full-length; 0.137 in the assay on IMP3 KH1-2; -0.858 with IMP3 KH3-4.
The matching figures for GAATCT: -0.125, -0.304, -0.276, -0.229 and -0.143.
For GTCTTT, in that order: 0.01, 0.497, 0.217, 0.055 and 0.232.
The matching figures for CAAGGG: -0.129, -0.077, 0.159, -0.005 and -0.021.
For CGGTCG, the “6-mer SELEX enrichment z-score” value with IMP3 KH1-4 came to 0.215; with IMP3 RRM1-2, 0.219; in the assay with IMP3 full-length, 0.695; in the assay on IMP3 KH1-2, 0.186; in the assay with IMP3 KH3-4 it was 0.102.
In the case of TGTTCC, the “6-mer SELEX enrichment z-score” value in the assay on IMP3 KH1-4 was 0.479; in the assay on IMP3 RRM1-2, 0.023; in the assay with IMP3 full-length it was -0.057; with IMP3 KH1-2, 0.345; with IMP3 KH3-4 it was 0.12.
For GCTCTA, in that order: -0.065, 0.15, -0.018, -0.021 and 0.049.
The matching figures for ACGACT: -0.327, -0.542, -0.869, -0.515 and -0.76.
For GTCTAG, in that order: -0.34, 0.232, -0.064, -0.257 and -0.144.
Consider GTGAGT, for which the “6-mer SELEX enrichment z-score” value in the assay on IMP3 KH1-4 was -0.017; in the assay with IMP3 RRM1-2, -0.073; in the assay with IMP3 full-length, -0.073; in the assay with IMP3 KH1-2, -0.043; in the assay on IMP3 KH3-4, 0.114.
Take GCAACG: the “6-mer SELEX enrichment z-score” value with IMP3 KH1-4 is -0.261; in the assay with IMP3 RRM1-2, -0.346; in the assay with IMP3 full-length it was 0.425; in the assay on IMP3 KH1-2, -0.472; in the assay on IMP3 KH3-4, -0.575.
For CTCTCG, in that order: -0.712, 0.47, -0.07, -0.61 and -0.569.
For TCCGCG, in that order: -0.953, -0.011, -0.167, -0.748 and -0.926.
For ATATGT, in that order: 1.28, -0.026, 0.2, 0.887 and 1.49.
As to AGTACA, the “6-mer SELEX enrichment z-score” value was found to be 0.284 in the assay on IMP3 KH1-4; 0.335 in the assay on IMP3 RRM1-2; 0.655 with IMP3 full-length; 0.145 with IMP3 KH1-2; 0.095 in the assay on IMP3 KH3-4.
As to ATGAAT, the “6-mer SELEX enrichment z-score” value in the assay with IMP3 KH1-4 was 2.24; with IMP3 RRM1-2, -0.641; with IMP3 full-length it was 0.04; in the assay on IMP3 KH1-2, 1.65; with IMP3 KH3-4 it was 2.98.
The matching figures for TCCGTG: -0.062, -0.04, -0.037, -0.105 and -0.295.
